Measured values from PMC7409549, “A time-resolved interaction analysis of Bem1 reconstructs the flow of Cdc42 during polar growth” (Life Science Alliance, 2020).
Results are given in words; binding and its absence hold for the method and conditions named. In cells and extracts the contact can be indirect. Some results given as binding are weak or reduced against the parent protein; the word gives no strength. For part of these data: Sequences can lack the tags named with a protein. One block for each binder: values may come before it.

How the values were obtained:
[1] = target: T1, Bud6_(1-364)CRU (S. cerevisiae) (UniProt P41697); experiment: split reporter; split-ubiquitin (Split-Ub): CRU and Nub fusions co-expressed in yeast cells, spotted in 10-fold serial dilutions on medium with 1 mg/ml 5-FOA and copper, 30°C; growth = interaction
T1 sequence: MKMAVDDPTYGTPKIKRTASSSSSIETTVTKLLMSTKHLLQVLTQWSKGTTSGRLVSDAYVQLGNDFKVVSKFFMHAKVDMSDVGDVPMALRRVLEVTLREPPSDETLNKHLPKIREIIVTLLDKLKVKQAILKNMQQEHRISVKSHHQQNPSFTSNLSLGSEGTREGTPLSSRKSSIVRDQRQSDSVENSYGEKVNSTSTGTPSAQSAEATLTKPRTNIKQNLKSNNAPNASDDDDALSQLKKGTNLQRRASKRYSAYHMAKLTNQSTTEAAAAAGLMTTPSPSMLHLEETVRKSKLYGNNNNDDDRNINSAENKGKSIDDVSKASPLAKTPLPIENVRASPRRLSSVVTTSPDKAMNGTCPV

Fir1CRU (S. cerevisiae) = target: T2, Fir1CRU (S. cerevisiae) (UniProt P40020); experiment: as above
T2 sequence: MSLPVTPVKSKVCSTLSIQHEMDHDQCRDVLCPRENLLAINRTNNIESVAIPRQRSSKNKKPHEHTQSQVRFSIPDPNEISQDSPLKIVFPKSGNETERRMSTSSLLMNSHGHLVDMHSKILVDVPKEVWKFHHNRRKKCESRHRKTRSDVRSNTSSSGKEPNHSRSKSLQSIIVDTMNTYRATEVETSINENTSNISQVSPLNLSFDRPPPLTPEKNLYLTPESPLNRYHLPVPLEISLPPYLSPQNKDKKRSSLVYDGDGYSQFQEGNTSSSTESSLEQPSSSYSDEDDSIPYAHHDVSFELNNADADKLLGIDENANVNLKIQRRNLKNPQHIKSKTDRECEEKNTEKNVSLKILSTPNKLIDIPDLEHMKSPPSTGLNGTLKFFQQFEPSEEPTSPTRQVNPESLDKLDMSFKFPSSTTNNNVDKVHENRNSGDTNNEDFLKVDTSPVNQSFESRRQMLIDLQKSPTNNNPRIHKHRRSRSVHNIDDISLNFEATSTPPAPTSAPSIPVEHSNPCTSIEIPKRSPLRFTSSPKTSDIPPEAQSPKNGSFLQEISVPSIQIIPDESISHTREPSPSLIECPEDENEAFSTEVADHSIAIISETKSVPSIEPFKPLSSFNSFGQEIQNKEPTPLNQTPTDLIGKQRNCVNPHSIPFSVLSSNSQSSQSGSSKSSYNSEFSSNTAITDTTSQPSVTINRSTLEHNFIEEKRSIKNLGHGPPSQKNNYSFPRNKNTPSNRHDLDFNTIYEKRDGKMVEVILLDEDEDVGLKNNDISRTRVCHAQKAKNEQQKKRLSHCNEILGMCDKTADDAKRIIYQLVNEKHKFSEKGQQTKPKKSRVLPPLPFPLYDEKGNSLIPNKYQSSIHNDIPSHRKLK

[2] = target: T3, Bem1-mCherry-Cub-RGFP (S. cerevisiae) (UniProt P29366); experiment: split reporter; SPLIFF (split-ubiquitin with mCherry-Cub-RGFP, CCG): a-cells with the CCG fusion mated with α-cells with Nub-HA fusions; conversion of CCG to CC measured by time-lapse microscopy at the site of cell fusion (PCDI); a significant positive slope = interaction
T3 sequence: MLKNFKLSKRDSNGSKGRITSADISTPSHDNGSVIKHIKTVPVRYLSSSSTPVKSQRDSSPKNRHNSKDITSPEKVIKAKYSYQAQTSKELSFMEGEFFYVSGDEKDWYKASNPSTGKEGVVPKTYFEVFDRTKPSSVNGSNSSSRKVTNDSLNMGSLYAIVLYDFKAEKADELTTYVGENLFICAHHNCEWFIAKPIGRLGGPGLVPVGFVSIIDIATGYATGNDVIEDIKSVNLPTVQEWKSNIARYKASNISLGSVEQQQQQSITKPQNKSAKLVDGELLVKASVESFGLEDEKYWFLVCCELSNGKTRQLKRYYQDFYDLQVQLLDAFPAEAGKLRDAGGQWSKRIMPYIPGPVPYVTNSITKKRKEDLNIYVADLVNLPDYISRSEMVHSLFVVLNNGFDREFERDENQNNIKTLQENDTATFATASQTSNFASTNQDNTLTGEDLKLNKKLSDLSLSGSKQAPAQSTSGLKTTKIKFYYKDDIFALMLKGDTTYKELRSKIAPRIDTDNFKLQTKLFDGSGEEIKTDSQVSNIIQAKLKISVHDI

[3] = target: T3, Bem1-mCherry-Cub-RGFP (S. cerevisiae); experiment: split reporter; SPLIFF as a9, measured at the cell front during bud site assembly and bud growth (PCDII)
[4] = target: T3, Bem1-mCherry-Cub-RGFP (S. cerevisiae); experiment: split reporter; SPLIFF as a9, measured at the bud neck from completion of acto-myosin ring contraction until abscission (PCDIII)
Nba1CRU (S. cerevisiae) = target: T4, Nba1CRU (S. cerevisiae) (UniProt Q08229); experiment: split reporter; split-ubiquitin (Split-Ub): a-cells with a Cub-RUra3 (CRU) fusion mated with α-cells with Nub fusions (P_CUP1), diploids as quadruplets on SD medium with 1 mg/ml 5-FOA and copper; growth = interaction; detects direct and indirect interactions
T4 sequence: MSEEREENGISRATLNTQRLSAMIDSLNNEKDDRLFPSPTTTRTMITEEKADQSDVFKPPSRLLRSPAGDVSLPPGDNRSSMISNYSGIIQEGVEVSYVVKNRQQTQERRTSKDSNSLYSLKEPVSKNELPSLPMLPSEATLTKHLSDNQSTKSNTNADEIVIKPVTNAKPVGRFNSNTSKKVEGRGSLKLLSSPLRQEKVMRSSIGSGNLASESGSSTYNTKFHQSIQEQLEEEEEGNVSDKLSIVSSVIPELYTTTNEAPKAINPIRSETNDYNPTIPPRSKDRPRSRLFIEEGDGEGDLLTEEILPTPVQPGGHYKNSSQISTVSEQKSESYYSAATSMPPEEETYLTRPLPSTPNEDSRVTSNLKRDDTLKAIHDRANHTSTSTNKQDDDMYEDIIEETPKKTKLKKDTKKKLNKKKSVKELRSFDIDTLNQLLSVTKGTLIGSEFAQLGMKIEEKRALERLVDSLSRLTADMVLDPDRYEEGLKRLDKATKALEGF

[5] = target: T5, Bem1-Cub-RUra3 (S. cerevisiae) (UniProt P29366); experiment: as above
T5 sequence: T3 sequence

[6] = target: T6, GST-Bem1_(140-271) (S. cerevisiae) (UniProt P29366); experiment: pull-down; GST fusions immobilised on glutathione sepharose beads from E. coli extracts, incubated 1 h at 4°C with yeast cell extracts; glutathione eluates blotted (anti-GFP or anti-Myc); only the target purified
T6 sequence: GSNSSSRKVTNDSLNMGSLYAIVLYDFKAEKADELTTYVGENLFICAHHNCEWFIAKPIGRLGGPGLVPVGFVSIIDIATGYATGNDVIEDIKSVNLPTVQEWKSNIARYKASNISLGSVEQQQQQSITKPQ

GST-Nbp2 (S. cerevisiae) = target: T7, GST-Nbp2 (S. cerevisiae) (UniProt Q12163); experiment: as above
T7 sequence: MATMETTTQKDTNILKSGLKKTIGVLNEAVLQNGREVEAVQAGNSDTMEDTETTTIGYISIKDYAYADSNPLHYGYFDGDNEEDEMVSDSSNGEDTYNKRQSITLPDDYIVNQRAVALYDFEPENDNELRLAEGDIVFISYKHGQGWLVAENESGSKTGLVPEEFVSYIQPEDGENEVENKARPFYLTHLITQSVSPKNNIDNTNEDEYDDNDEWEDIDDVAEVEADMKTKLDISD

- binding [1]: binds
- binding (Fir1CRU (S. cerevisiae)): binds
- binding [2]: binds
- binding [3]: binds
- binding [4]: binds
- binding (Nba1CRU (S. cerevisiae)): binds
- binding [5]: binds
B1: Nub-Boi2 (protein, UniProt P39969 1-1040)
chain: MSNDREVPTLSQLNTTVSRDKDVSDTLSPDFDSKGSATGRDGGNFPMYIAINEYFKRMEDELDMKPGDKIKVITDDEEYKDGWYFGRNLRTNEEGLYPVVFTQKITVEKAPTLMRAKSTKRIYSPLTNEDPLLSSTFISENDSNSELPTPQPIETAASISRTANGKIERNLSLKNTMSDIDNALLEFKDDSIGPPDRFINSGRDEEHSITHETILSATDGLDVVESNSKPTTSSSTGFLNGDLENQATLINGIDTTKLNPVEAEFWSPEEITAYFIMEGYDVQSASRFQKHKISGKILLELELVHLKELDINSFGTRFEIFKEIEKIKEAIRTNGRSLNRASKTNNANIYNQLMPPANVDQRASYRGHVRKTSQSLEDLPSQQNFIPTPRNTRNSSASKHRPKSLVFDSQEANANIAPDVQIPQVVEEMAGNENLFVSPRRAPKPPSYPSPAQPPKSPLLNNTRTSPSPAQLYSWQSPTLSFSGPKRTSYIDQYSSSDSNFNSRSALPKNNQGGGKALSPIPSPTRNSVRNEDSEGKLTSSSKRNSVPYYGYAPESSSDRKSSCSSHEEEQFQETMNTFERPTSSIYADGSTIASISNDKLAHEKEGKKKPTRHSSSLSSKSKSDSRRNSSLKRSSSASRTSSFKKSSFMLSPFRQQFTDNAARSSSPEENPITSMPSEKNSSPIVDKKSSKKSRSKRRSVSAKEAEIFTETVKDDKNKRSASEAIKGETLKGKSLRQMTARPVAKKKQTSAFIEGLRSISVKEAMKDADFSGWMSKKGSGAMSTWKTRFFTLHGTRLSYFSSTTDTRERGLIDITAHRVVPAKEDDKLVSLYAASTGKGRYCFKLLPPQPGSKKGLTFTQPRTHYFAVDNKEEMRGWMAALIKTTIDIDTSVPIISSYTTPTVSLSKAQEMLAEAREETKLREQQMLENEEDEDQFLWDQQQLQQQQHDNNQGQADRTISASTQRTSDEDNTISTPNLSSANNTTIGSNGFSSPFLLASGLLSPGVARNSSMRGTEKKGKFSTEEDYFGDNSKHKTDKI

- binding [6]: binds
- binding (GST-Nbp2 (S. cerevisiae)): binds
B2: Ste20 9xMyc fusion (protein, UniProt Q03497 1-939)
chain: MSNDPSAVSELPDKDSLDNGISNDNERAMGGNGDGGDGLRLPRTTGTLNVNALQKGTNAAHEAGGYKSMDPAKNAETTNDDDNNVVSLDDPIQFTRVSSSSVISGMSSSMSPHSNIDETKSLEAVTPNINTSNITPDHSADNTFSTINASESDHQFNDTLLSKLSLTDSTETIENNATVKHQQPVASSTVNSNKSSTDIRRATPVSTPVISKPSMTTTPRQINSASHSLSNPKHKQHKPKVKPSKPEAKSKPVSVKKSFPSKNPLKNSSPPKKQTEKSYYSSSSKKRKSGSNSGTLRMKDVFTSFVQNIKRNSQDDKRASSSSNNSSSSSITTALRISTPYNAKHIHHVGVDSKTGEYTGLPEEWEKLLTSSGISKREQQQNMQAVMDIVKFYQDVTETNGEDKMFKTFNTTTGLPGSPQVSTPPANSFNKFPPSTSDSHNYGSRTGTPMSNHVMSPTLNTDSSSANGKFIPSRPAPKPPSSASASAPIIKSPVMNSAANVSPLKQTHAPTTPNRTSPNRSSISRNATLKKEEQPLPPIPPTKSKTSPIISTAHTPQQVAQSPKAPAQETVTTPTSKPAQARSLSKELNEKKREERERRKKQLYAKLNEICSDGDPSTKYANLVKIGQGASGGVYTAYEIGTNVSVAIKQMNLEKQPKKELIINEILVMKGSKHPNIVNFIDSYVLKGDLWVIMEYMEGGSLTDVVTHCILTEGQIGAVCRETLSGLEFLHSKGVLHRDIKSDNILLSMEGDIKLTDFGFCAQINELNLKRTTMVGTPYWMAPEVVSRKEYGPKVDIWSLGIMIIEMIEGEPPYLNETPLRALYLIATNGTPKLKEPENLSSSLKKFLDWCLCVEPEDRASATELLHDEYITEIAEANSSLAPLVKLARLKKVAENMDADEDNDDDNDNEHINKTNNCDDNNDSKETVNLDVTEDDKQK
